Laboratory results from PubChem BioAssay AID1346428 (National Center for Advancing Translational Sciences (NCATS), 2018).
Hit rate of the full screen: of about 48,000 compounds, about 1,200 (2.5%) were called active. Not shown: some 2% with an inconclusive outcome.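 The calls were made as follows: active = activation of at least 60% and not above a set upper limit (about 1 call in 100 departs from these limits); inconclusive = activation of 40% to 60%, or above that upper limit; inactive = activation under 40%.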 Some of the results follow.

Target: Probable G-protein coupled receptor 32 (Homo sapiens) (UniProt O75388)
Assay: qHTS for Agonists of Human Resolvin D1 Receptor DRV1; also: 0% is about no effect
Conditions: CHO-K1 GPR32 beta-arrestin PathHunter luminescence, 90 min; at 76.9 µM; active compounds read high; zero percent set by DMSO-only wells
Outline: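 Beta-arrestin recruitment read-out: luminescence from complemented beta-Gal in CHO-K1 GPR32 PathHunter cells, measured 1 h after detection reagent at ambient temperature following 90 min compound exposure at 37 °C; DMSO served as basal (EC0) control.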

Sequence of UniProt O75388 (O75388 whole entry, looked up): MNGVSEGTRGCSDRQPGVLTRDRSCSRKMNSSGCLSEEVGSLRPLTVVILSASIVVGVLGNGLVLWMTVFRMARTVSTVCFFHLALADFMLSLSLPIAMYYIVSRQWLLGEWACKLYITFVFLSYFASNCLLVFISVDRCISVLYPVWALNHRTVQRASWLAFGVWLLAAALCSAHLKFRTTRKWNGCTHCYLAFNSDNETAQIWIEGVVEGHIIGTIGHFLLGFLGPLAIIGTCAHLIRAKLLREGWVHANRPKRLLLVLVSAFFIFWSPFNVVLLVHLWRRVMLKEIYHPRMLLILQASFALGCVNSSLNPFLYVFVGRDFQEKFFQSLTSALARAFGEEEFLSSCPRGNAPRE

activation, inactive:
O=S(=O)(c1cccc(Cl)c1)c1nnn2c1nc(NC1CCCC1)c1sccc12 -21.3%
COc1ccc(CC(=O)Nc2sc3c(c2C(=O)Nc2ccc(C)cc2)CCCCC3)cc1 -21.5%
CCc1cccc(C)c1Nc1c(-c2cccc(O)c2)nc2sccn12 -22%
Cc1[nH]c2ccccc2c1C1(O)C(=O)N(Cc2ccc(Cl)cc2)c2ccccc21 (stereo not given) -28.1%
CCOC(=O)c1cc2c(=O)n3ccccc3nc2n(CC2CCCO2)c1=NC(=O)c1cc(C)cc(C)c1 (stereo not given) 10.7%
N#C/C(=C\c1ccccc1F)c1nc2ccccc2c(=O)[nH]1 24.3%
CC(=O)c1ccc(NC(=O)CN2C(=O)CCc3cc(S(=O)(=O)N4CCC(C)CC4)ccc32)cc1 -6.47%
COc1cccc(NC(=O)CCc2nnc3n(CC(C)C)c(=O)c4ccccc4n23)c1 -2.05%
CCCn1ccc2c(OCC(=O)Nc3ccc(C(F)(F)F)cc3)cccc2c1=O -0.0614%
O=C(Nc1ccc(Cl)c(C(F)(F)F)c1)c1cc2nc(-c3ccc4c(c3)OCO4)cc(C(F)(F)F)n2n1 3.56%
COc1ccc(NC(=O)CSc2n[nH]c(-c3ccccc3)n2)cc1Cl 17.1%
O=C(Nc1ccccc1F)c1oc2ccccc2c1NC(=O)C12CC3CC(CC(C3)C1)C2 -5.26%
CCC(O)c1nc2ccccc2n1CCOc1cc(C)cc(C)c1 (stereo not given) -2.57%
CCOC(=O)c1noc2nc(C)n(CC(=O)Nc3ccc(Br)cc3C)c(=O)c12 3.61%
CCOc1ccccc1N(CC)C(=O)c1cc2c(=O)n(CC)c3ccccc3c2s1 -26.7%
Cc1cc(Nc2cccc(C(F)(F)F)c2)nc2ccc(NC(=O)c3cncc(Br)c3)cc12 -22.9%
Cc1ccc(CN(C(=O)c2ccc([N+](=O)[O-])cc2)c2ccccn2)cc1 -0.707%
CC1(CN2CCC(n3c(=O)[nH]c4ccccc43)CC2)OCc2ccccc2-n2cccc21 (stereo not given) 13.2%
COc1ccc(OC)c(-n2cnc3cc(C(=O)NCCc4ccccc4)ccc32)c1 -7.92%
CC(C)OC(=O)c1c(NC(=O)c2cc3nc(-c4ccccc4)cc(C(F)(F)F)n3n2)sc2c1CCCC2 -19.5%
Cc1ccc(-c2nnc3ccccc3c2C(=O)Nc2cccc(C(F)(F)F)c2)cc1 -4.72%
Cc1ccc(OCC(=O)Nc2ccccc2C(=O)OCc2cc(=O)n3c(C)csc3n2)cc1 1.35%
CC(C(=O)NCc1ccc(Cl)cc1)n1ccc2cc(S(=O)(=O)N3CCCC3)ccc21 (stereo not given) 13.2%
COc1ccc(CCN(C)CCc2ccc(OC)c(OC)c2)cc1OC 0.0002%
CSc1nnc2c(n1)OC(c1cccc(O)c1Cl)Nc1ccccc1-2 (stereo not given) -6.11%
CC1=C(C(=O)Nc2ccc(C)cc2C)C(c2ccc[nH]2)n2ncnc2N1 (stereo not given) 9.23%
Cc1nn(C)c2c1c(C(F)(F)F)cc(=O)n2CC(=O)NC(C)(C)C 13.8%
COc1ccc(CCCc2nnc(SCC(=O)Nc3ccc(Cl)cc3)o2)cc1 -9.94%
CCOc1ccc(OCC)c(NC(=O)c2c(C)nn(-c3ccccc3)c2-n2cccc2)c1 -21.9%
COc1ccc(-c2cc(-c3ccc(F)cc3)nc3c2COc2ccccc2-3)cc1 -1.09%
CCc1ccc(CNC(=O)c2sc3ncnc(N(C)C4CCCCC4)c3c2C)cc1 -17.2%
CCc1ccccc1NC(=O)c1ccc2[nH]c(C)c(C)c2c1 7.48%
Cc1oc2ncnc(N3CCCCC3)c2c1C(=O)Nc1cccc(F)c1 -29.1%
Cc1ccccc1CN1C(=O)C(O)(CC(=O)c2cccc(Br)c2)c2ccccc21 (stereo not given) -15.4%
CCOc1ccccc1C1Nc2ccccc2-c2nnc(SCc3ccccc3)nc2O1 (stereo not given) 5.98%
Cc1c(C(=O)NCc2ccccc2)oc2c1-c1[nH]ncc1CC2 -6.13%
COc1ccc(Nc2cc(C(=O)NCCCN(C)C3CCCCC3)c3ccccc3n2)cc1 -23%
CCOc1ccc(-c2nnc(SCC(=O)NCCc3ccccc3)nc2-c2ccc(OCC)c(OC)c2)cc1OC -18.1%
CCCN(C(=O)Cn1nc(Cc2ccncc2)c2ccccc2c1=O)c1ccccc1C -11.2%
Cc1cc(O)c(CN2CCN(c3ccc(F)cc3)CC2)c2oc(=O)cc(C)c12 -15%
Cc1cccc(C(=O)Nc2nnc(S(=O)(=O)N3c4ccccc4CC3C)s2)c1 (stereo not given) 27.9%
COCCCn1c(=N)c(C(=O)NC2CCCC2)cc2c(=O)n3cc(C)ccc3nc21 -0.0945%
COc1ccc(Br)cc1CNC(=O)c1ccc(-n2c(C)cc3c2CCC(C)C3)cc1 (stereo not given) -18.9%
CCN(CC)C(=O)C1=C(C)Nc2nc3ccccc3n2C1c1ccc(Cl)cc1 (stereo not given) -7.96%
CSc1ncc(C(=O)Nc2cccc(Cl)c2C)c(-c2ccccc2)n1 0.0328%
O=C(NCc1ccccn1)c1nn(-c2ccccc2Cl)nc1CO -4.39%
Cc1ccccc1NC(=O)c1ccc(CNS(=O)(=O)c2ccc3c(c2)C(C)(C)C(=O)N3C)cc1 -13.9%
COc1ccccc1CNC(=O)C(Cc1ccccc1)NS(=O)(=O)c1ccc2c(c1)CCN2C(C)=O (stereo not given) 7.97%
Cc1cc(NC(=O)CSc2ncc(C(=O)Nc3ccccc3)c(=O)n2C)no1 -9.48%
CCCCOc1ccc(C(=O)NCCc2csc3nc(-c4ccccc4F)nn23)cc1 29%
CCNC(=O)CC1C(=O)N(c2ccc(F)cc2)C(=O)N1Cc1ccc(C)cc1 (stereo not given) 0.37%
CC(=O)OC/C=C(C)/C=C/C=C(C)/C=C/C1=C(C)CCCC1(C)C 15.5%
Cc1ccc(Cl)cc1N(C)C(=O)c1cc2ccc3cccnc3c2[nH]1 -22.1%
CCOc1ccccc1C(=O)NCC(c1ccc(N(C)C)cc1)N1CCCC1 (stereo not given) 3.62%
CS(=O)(=O)N1CCC(N2CCN(Cc3ccc(F)cc3)C(=O)C2=O)CC1 -6.09%
CCn1c(CN2CCN(C)CC2)nc2cc(NC(=O)c3cc(OC)c(OC)c(OC)c3)ccc21 2.33%
Clc1ccc2c(c1)N=C(N1CCNCC1)c1ccccc1N2 -20.8%
CSc1ccc(CCNC(=O)c2ccc3c(c2)c(C)c(C)n3Cc2ccc(F)cc2)cc1 -13.3%
COCCn1c(CNC(=O)c2cc(OC)c(OC)c(OC)c2)nc2cccnc21 -2.8%
CC(=O)c1cccc(NC(=O)c2cc(-c3ccc4c(c3)OCCO4)on2)c1 -27.7%
CCOC(=O)CNC(=O)Cn1nc(N2CCN(c3ccccc3)CC2)ccc1=O -8.75%
COc1ccc(CCNC(=O)c2cc3c(=O)[nH]c4ccc(C)cc4c3s2)cc1OC -9.11%
CCN(CC)C(=O)C1CCCN(c2ncnc3c2nc2n3CCCCC2)C1 (stereo not given) 17%
CCOc1ccccc1CNC(=O)CN1C(=O)C2CCCCN2c2ccc(C(=O)N(C)C)cc21 (stereo not given) -19.2%
COC(=O)c1ccc(NC(=O)c2c(NCc3ccc(OC)c(OC)c3)sc3c2CCCC3)cc1 -14.7%
COC(=O)c1ccccc1NC(=O)CCCS(=O)(=O)c1nc(-c2ccccc2OC)cc(C(F)(F)F)n1 13.3%
CCCCCCCCCCCCCCCCCC(=O)O -2.64%
Cc1cccc(C)c1Nc1c(-c2ccccc2O)nc2ncccn12 -23.2%
Cc1ccccc1CNC(=O)c1ccc2c(c1)N(Cc1ccccc1)CCS2 -35.7%
O=c1oc2ccc3ccccc3c2cc1-c1nnc(Nc2cccc(F)c2)s1 9.85%
O=C(CCCn1c(=O)c2cccn2c2cccnc21)Nc1ccccc1Br -8.41%
Cc1ccc(CNC(=O)Cn2cc(C(=O)c3ccc(Cl)cc3)c(=O)c3ccc(C)nc32)cc1 19.3%
CCOC(=O)c1c(NC(=O)/C=C/c2ccc(OCC)cc2)sc2c1CCC2 18.7%
CCCCn1c(=O)c2oc3ccccc3c2n(CC(=O)Nc2ccccc2OC)c1=O -2.49%
CCCCNC(=O)[C@@H](c1ccccc1)N1Cc2ccccc2C1=O 0.114%
Cc1nn(CC(=O)NCc2ccccc2Br)c(=O)c2cc3occc3n12 -32.2%
Cc1ccc(S(=O)(=O)N2CCCc3cc(NC(=O)c4c(F)cccc4F)ccc32)cc1 -22.4%
CNc1oc(/C=C/c2cc(OC)c(OC)c(OC)c2)nc1C#N -27.8%
O=C(CCn1c(=O)c2cccn2c2cccnc21)N1CCN(c2ccc(Cl)cc2)CC1 -22.3%
Cc1cccc(OCCCCn2c(C3CC(=O)N(c4ccc(C)cc4C)C3)nc3ccccc32)c1 (stereo not given) -6.67%
Cc1ccc(Cl)cc1-n1ncc2c(N3CCC(C(N)=O)CC3)ncnc21 3.35%
O=C(OCC1CCCO1)c1ccc2c(c1)N(Cc1ccccc1F)C(=O)c1ccccc1S2(=O)=O (stereo not given) -20.6%

activation, active:
O=C(/C=C/c1ccccc1)Nc1nc(-c2cccs2)ns1 80.8%
Cc1cc(C)cc(NS(=O)(=O)c2ccc3[nH]cc(C(=O)NCc4ccco4)c(=O)c3c2)c1 98.7%
CCOc1ccccc1C(=O)Nc1cc2c(cc1N1CCCCC1)n(C)c(=O)n2C 69.7%
